# Test results: the supplement of paper PMC8728848
# Some of the results follow.
# B1: ACA (Amaranthus caudatus) (protein)
# chain: MAGLPVIMCLKSNNNQKYLRYQSDNIQQYGLLQFSADKILDPLAQFEVEPSKTYDGLVHIKSRYTNKYLVRWSPNHYWITASANEPDENKSNWACTLFKPLYVEEGNMKKVRLLHVQLGHYTQNYTVGGSFVSYLFAESSQIDTGSKDVFHVIDWKSIFQFPKRYVTFKGNNGKYLGVITINQLPCLQFGYDNLNDPKVAHEMFVTSNGTICIKSTYMNKFWRLSTDDWILVDGNDPRETNEAAALFRSDVHDFNVISLLNMQKTWFIKRFTSGKPGFINCMNAATQNVDETAILEIIELGSNN
# Tests used:
# Experiment in all cases: glycan array binding signal (z-score within array); higher = stronger binding
# Settings in all cases: glycan notation: IUPAC condensed, linker removed
# [1] = target: Gal3S(b1-4)Glc6S
# Procedure, shortened: (§1)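 Arrays were curated from the Consortium for Functional Glycomics database, 3228 in total, and kept only where the protein sequence was available. Binding is expressed as a within-array Z-score. This score was averaged across arrays of the same protein sequence at different concentrations or buffers and across linkers, and negative values can be read as non-binding.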
# [2] = target: Gal3S(b1-4)GlcNAc
# Procedure, shortened: as §1
# [3] = target: Gal3S(b1-4)[Fuc(a1-3)]Glc6S
# Procedure, shortened: as §1
# [4] = target: Gal3S(b1-4)[Fuc(a1-3)]GlcNAc
# Procedure, shortened: as §1
# [5] = target: Gal3S(b1-4)[Fuc(a1-3)]GlcNAc6S
# Procedure, shortened: as §1
# [6] = target: Gal3S4S(b1-4)GlcNAc
# Procedure, shortened: as §1
# [7] = target: Gal3S6S(b1-4)GlcNAc
# Procedure, shortened: as §1
# [8] = target: Gal3S6S(b1-4)GlcNAc6S
# Procedure, shortened: as §1
# [9] = target: Gal4S(b1-4)GlcNAc
# Procedure, shortened: as §1
# [10] = target: Gal4S6S(b1-4)GlcNAc
# Procedure, shortened: as §1
# [11] = target: Gal6P(b1-4)GlcNAc
# Procedure, shortened: as §1
# [12] = target: Gal6S(b1-3)GlcNAc
# Procedure, shortened: as §1
# [13] = target: Gal6S(b1-3)GlcNAc6S
# Procedure, shortened: as §1
# [14] = target: Gal6S(b1-4)Glc
# Procedure, shortened: as §1
# [15] = target: Gal6S(b1-4)Glc6S
# Procedure, shortened: as §1
# [16] = target: Gal6S(b1-4)GlcNAc
# Procedure, shortened: as §1
# [17] = target: Gal6S(b1-4)GlcNAc6S
# Procedure, shortened: as §1
# [18] = target: GalNAc(a1-3)Gal
# Procedure, shortened: as §1
# [19] = target: GalNAc(a1-3)GalNAc
# Procedure, shortened: as §1
# [20] = target: GalNAc(a1-3)GalNAc(a1-3)Gal(a1-4)Gal(b1-4)GlcNAc
# Procedure, shortened: as §1
# [21] = target: GalNAc(a1-3)GalNAc(b1-3)Gal(a1-4)Gal(b1-4)Glc
# Procedure, shortened: as §1
# [22] = target: GalNAc(b1-3)Gal
# Procedure, shortened: as §1
# [23] = target: GalNAc(b1-3)Gal(a1-4)Gal(b1-4)GlcNAc
# Procedure, shortened: as §1
# [24] = target: GalNAc(b1-3)Gal(a1-4)Gal(b1-4)GlcNAc(b1-3)Gal(b1-4)Glc
# Procedure, shortened: as §1
# [25] = target: GalNAc(b1-3)Gal(a1-6)Gal(b1-4)Glc
# Procedure, shortened: as §1
# [26] = target: GalNAc(b1-3)GalNAc
# Procedure, shortened: as §1
# [27] = target: GalNAc(b1-3)GlcNAc
# Procedure, shortened: as §1
# [28] = target: GalNAc(b1-4)Gal(b1-4)Glc
# Procedure, shortened: as §1
# [29] = target: GalNAc(b1-4)GlcNAc
# Procedure, shortened: as §1
# [30] = target: GalNAc(b1-4)GlcNAc(b1-2)Man
# Procedure, shortened: as §1
# [31] = target: GalNAc(b1-4)GlcNAc(b1-2)Man(a1-3)[GalNAc(b1-4)GlcNAc(b1-2)Man(a1-6)]Man(b1-4)GlcNAc(b1-4)GlcNAc
# Procedure, shortened: as §1
# [32] = target: GalNAc(b1-4)GlcNAc(b1-3)GalNAc(b1-4)GlcNAc
# Procedure, shortened: as §1
# [33] = target: GalNAc(b1-4)GlcNAc6S
# Procedure, shortened: as §1
# [34] = target: GalNAc(b1-6)GalNAc
# Procedure, shortened: as §1
# [35] = target: GalNAc3S(b1-4)GlcNAc
# Procedure, shortened: as §1
# [36] = target: GalNAc3S(b1-4)GlcNAc3S
# Procedure, shortened: as §1
# [37] = target: GalNAc3S(b1-4)[Fuc(a1-3)]GlcNAc
# Procedure, shortened: as §1
# [38] = target: GalNAc4S6S(b1-4)GlcNAc
# Procedure, shortened: as §1
# [39] = target: GalNAc6S(b1-4)GlcNAc
# Procedure, shortened: as §1
# [40] = target: Glc(a1-4)Glc
# Procedure, shortened: as §1
# [41] = target: Glc(a1-4)Glc(a1-4)Glc(a1-4)Glc
# Procedure, shortened: as §1
# [42] = target: Glc(a1-6)Glc(a1-6)Glc
# Procedure, shortened: as §1
# [43] = target: Glc(a1-6)Glc(a1-6)Glc(a1-6)Glc
# Procedure, shortened: as §1
# [44] = target: Glc(b1-4)Glc
# Procedure, shortened: as §1
# [45] = target: Glc(b1-6)Glc
# Procedure, shortened: as §1
binder,measurement,setting,value
B1,glycan array binding signal (z-score),[1],-0.276
same,glycan array binding signal (z-score),[2],-0.039
same,glycan array binding signal (z-score),[3],0.827
same,glycan array binding signal (z-score),[4],-0.462
same,glycan array binding signal (z-score),[5],-0.386
same,glycan array binding signal (z-score),[6],-0.156
same,glycan array binding signal (z-score),[7],-0.093
same,glycan array binding signal (z-score),[8],0.432
same,glycan array binding signal (z-score),[9],-0.336
same,glycan array binding signal (z-score),[10],-0.416
same,glycan array binding signal (z-score),[11],-0.634
same,glycan array binding signal (z-score),[12],-0.469
same,glycan array binding signal (z-score),[13],-0.274
same,glycan array binding signal (z-score),[14],-0.168
same,glycan array binding signal (z-score),[15],0.122
same,glycan array binding signal (z-score),[16],-0.235
same,glycan array binding signal (z-score),[17],-0.097
same,glycan array binding signal (z-score),[18],-0.42
same,glycan array binding signal (z-score),[19],-0.401
same,glycan array binding signal (z-score),[20],-0.18
same,glycan array binding signal (z-score),[21],-0.541
same,glycan array binding signal (z-score),[22],-0.355
same,glycan array binding signal (z-score),[23],-0.526
same,glycan array binding signal (z-score),[24],-0.38
same,glycan array binding signal (z-score),[25],-0.084
same,glycan array binding signal (z-score),[26],-0.213
same,glycan array binding signal (z-score),[27],-0.517
same,glycan array binding signal (z-score),[28],0.123
same,glycan array binding signal (z-score),[29],0.037
same,glycan array binding signal (z-score),[30],-0.233
same,glycan array binding signal (z-score),[31],2
same,glycan array binding signal (z-score),[32],-0.372
same,glycan array binding signal (z-score),[33],-0.319
same,glycan array binding signal (z-score),[34],-0.432
same,glycan array binding signal (z-score),[35],-0.639
same,glycan array binding signal (z-score),[36],-0.917
same,glycan array binding signal (z-score),[37],-0.439
same,glycan array binding signal (z-score),[38],-0.719
same,glycan array binding signal (z-score),[39],-0.811
same,glycan array binding signal (z-score),[40],0.351
same,glycan array binding signal (z-score),[41],-0.121
same,glycan array binding signal (z-score),[42],0.053
same,glycan array binding signal (z-score),[43],0.16
same,glycan array binding signal (z-score),[44],0.133
same,glycan array binding signal (z-score),[45],-0.226
